Measured values as given in the supplement of paper PMC8728848.
The list shows a part of the results.

Legend:
Test in all cases: glycan array binding signal (z-score within array); higher = stronger binding
Conditions in all cases: glycan notation: IUPAC condensed, linker removed
[1] = molecular target: Fuc(a1-2)Gal6S(b1-3)GlcNAc6S
Procedure, shortened: (§1)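 Negative Z-scores can be read as non-binding. The Z-score is calculated within each array and then averaged across arrays of one protein sequence at different concentrations or buffers and across linkers. Arrays, 3228 in all, were curated from the Consortium for Functional Glycomics database and kept only where the protein sequence was available.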

[2] = molecular target: Fuc(a1-2)Gal6S(b1-4)Glc
Procedure, shortened: as §1

[3] = molecular target: Fuc(a1-2)Gal6S(b1-4)Glc6S
Procedure, shortened: as §1

[4] = molecular target: Fuc(a1-2)[Gal(a1-3)]Gal
Procedure, shortened: as §1

[5] = molecular target: Fuc(a1-2)[Gal(a1-3)]Gal(b1-3)GalNAc
Procedure, shortened: as §1

[6] = molecular target: Fuc(a1-2)[Gal(a1-3)]Gal(b1-3)GalNAc(b1-3)Gal(a1-4)Gal(b1-4)Glc
Procedure, shortened: as §1

[7] = molecular target: Fuc(a1-2)[Gal(a1-3)]Gal(b1-3)GlcNAc
Procedure, shortened: as §1

[8] = molecular target: Fuc(a1-2)[Gal(a1-3)]Gal(b1-3)GlcNAc(b1-2)Man(a1-3)[Fuc(a1-2)[Gal(a1-3)]Gal(b1-3)GlcNAc(b1-2)Man(a1-6)]Man(b1-4)GlcNAc(b1-4)GlcNAc
Procedure, shortened: as §1

[9] = molecular target: Fuc(a1-2)[Gal(a1-3)]Gal(b1-3)GlcNAc(b1-2)Man(a1-3)[Fuc(a1-2)[Gal(a1-3)]Gal(b1-3)GlcNAc(b1-2)Man(a1-6)]Man(b1-4)GlcNAc(b1-4)[Fuc(a1-6)]GlcNAc
Procedure, shortened: as §1

[10] = molecular target: Fuc(a1-2)[Gal(a1-3)]Gal(b1-3)GlcNAc(b1-3)GalNAc
Procedure, shortened: as §1

[11] = molecular target: Fuc(a1-2)[Gal(a1-3)]Gal(b1-3)GlcNAc(b1-6)GalNAc
Procedure, shortened: as §1

[12] = molecular target: Fuc(a1-2)[Gal(a1-3)]Gal(b1-4)Glc
Procedure, shortened: as §1

[13] = molecular target: Fuc(a1-2)[Gal(a1-3)]Gal(b1-4)GlcNAc
Procedure, shortened: as §1

[14] = molecular target: Fuc(a1-2)[Gal(a1-3)]Gal(b1-4)GlcNAc(b1-2)Man
Procedure, shortened: as §1

[15] = molecular target: Fuc(a1-2)[Gal(a1-3)]Gal(b1-4)GlcNAc(b1-2)Man(a1-3)[Fuc(a1-2)[Gal(a1-3)]Gal(b1-4)GlcNAc(b1-2)Man(a1-6)]Man(b1-4)GlcNAc(b1-4)GlcNAc
Procedure, shortened: as §1

[16] = molecular target: Fuc(a1-2)[Gal(a1-3)]Gal(b1-4)GlcNAc(b1-2)Man(a1-3)[Fuc(a1-2)[Gal(a1-3)]Gal(b1-4)GlcNAc(b1-2)Man(a1-6)]Man(b1-4)GlcNAc(b1-4)[Fuc(a1-6)]GlcNAc
Procedure, shortened: as §1

[17] = molecular target: Fuc(a1-2)[Gal(a1-3)]Gal(b1-4)GlcNAc(b1-3)GalNAc
Procedure, shortened: as §1

[18] = molecular target: Fuc(a1-2)[Gal(a1-3)]Gal(b1-4)GlcNAc(b1-3)[Fuc(a1-2)[Gal(a1-3)]Gal(b1-4)GlcNAc(b1-6)]GalNAc
Procedure, shortened: as §1

[19] = molecular target: Fuc(a1-2)[Gal(a1-3)]Gal(b1-4)GlcNAc(b1-6)GalNAc
Procedure, shortened: as §1

[20] = molecular target: Fuc(a1-2)[Gal(a1-3)]Gal(b1-4)[Fuc(a1-3)]Glc
Procedure, shortened: as §1

[21] = molecular target: Fuc(a1-2)[Gal(a1-3)]Gal(b1-4)[Fuc(a1-3)]GlcNAc
Procedure, shortened: as §1

[22] = molecular target: Fuc(a1-2)[Gal(a1-3)]Gal(b1-4)[Fuc(a1-3)]GlcNAc(b1-3)GalNAc
Procedure, shortened: as §1

[23] = molecular target: Fuc(a1-2)[Gal(a1-4)]Gal(b1-4)GlcNAc
Procedure, shortened: as §1

[24] = molecular target: Fuc(a1-2)[GalNAc(a1-3)]Gal
Procedure, shortened: as §1

[25] = molecular target: Fuc(a1-2)[GalNAc(a1-3)]Gal(b1-3)GalNAc(a1-3)[Fuc(a1-2)]Gal(b1-4)GlcNAc
Procedure, shortened: as §1

[26] = molecular target: Fuc(a1-2)[GalNAc(a1-3)]Gal(b1-3)GalNAc(b1-3)Gal(a1-4)Gal(b1-4)Glc
Procedure, shortened: as §1

[27] = molecular target: Fuc(a1-2)[GalNAc(a1-3)]Gal(b1-3)GlcNAc
Procedure, shortened: as §1

[28] = molecular target: Fuc(a1-2)[GalNAc(a1-3)]Gal(b1-3)GlcNAc(b1-2)Man(a1-3)[Fuc(a1-2)[GalNAc(a1-3)]Gal(b1-3)GlcNAc(b1-2)Man(a1-6)]Man(b1-4)GlcNAc(b1-4)GlcNAc
Procedure, shortened: as §1

[29] = molecular target: Fuc(a1-2)[GalNAc(a1-3)]Gal(b1-3)GlcNAc(b1-2)Man(a1-3)[Fuc(a1-2)[GalNAc(a1-3)]Gal(b1-3)GlcNAc(b1-2)Man(a1-6)]Man(b1-4)GlcNAc(b1-4)[Fuc(a1-6)]GlcNAc
Procedure, shortened: as §1

[30] = molecular target: Fuc(a1-2)[GalNAc(a1-3)]Gal(b1-3)GlcNAc(b1-3)GalNAc
Procedure, shortened: as §1

[31] = molecular target: Fuc(a1-2)[GalNAc(a1-3)]Gal(b1-3)GlcNAc(b1-6)GalNAc
Procedure, shortened: as §1

[32] = molecular target: Fuc(a1-2)[GalNAc(a1-3)]Gal(b1-4)Glc
Procedure, shortened: as §1

[33] = molecular target: Fuc(a1-2)[GalNAc(a1-3)]Gal(b1-4)GlcNAc
Procedure, shortened: as §1

[34] = molecular target: Fuc(a1-2)[GalNAc(a1-3)]Gal(b1-4)GlcNAc(b1-2)Man
Procedure, shortened: as §1

[35] = molecular target: Fuc(a1-2)[GalNAc(a1-3)]Gal(b1-4)GlcNAc(b1-2)Man(a1-3)[Fuc(a1-2)[GalNAc(a1-3)]Gal(b1-4)GlcNAc(b1-2)Man(a1-6)]Man(b1-4)GlcNAc(b1-4)GlcNAc
Procedure, shortened: as §1

[36] = molecular target: Fuc(a1-2)[GalNAc(a1-3)]Gal(b1-4)GlcNAc(b1-2)Man(a1-3)[Fuc(a1-2)[GalNAc(a1-3)]Gal(b1-4)GlcNAc(b1-2)Man(a1-6)]Man(b1-4)GlcNAc(b1-4)[Fuc(a1-6)]GlcNAc
Procedure, shortened: as §1

[37] = molecular target: Fuc(a1-2)[GalNAc(a1-3)]Gal(b1-4)GlcNAc(b1-3)Gal(b1-4)GlcNAc
Procedure, shortened: as §1

[38] = molecular target: Fuc(a1-2)[GalNAc(a1-3)]Gal(b1-4)GlcNAc(b1-3)Gal(b1-4)GlcNAc(b1-3)Gal(b1-4)GlcNAc
Procedure, shortened: as §1

[39] = molecular target: Fuc(a1-2)[GalNAc(a1-3)]Gal(b1-4)GlcNAc(b1-3)GalNAc
Procedure, shortened: as §1

[40] = molecular target: Fuc(a1-2)[GalNAc(a1-3)]Gal(b1-4)GlcNAc(b1-3)[Fuc(a1-2)[GalNAc(a1-3)]Gal(b1-4)GlcNAc(b1-6)]GalNAc
Procedure, shortened: as §1

[41] = molecular target: Fuc(a1-2)[GalNAc(a1-3)]Gal(b1-4)GlcNAc(b1-6)GalNAc
Procedure, shortened: as §1

[42] = molecular target: Fuc(a1-2)[GalNAc(a1-3)]Gal(b1-4)[Fuc(a1-3)]GlcNAc
Procedure, shortened: as §1

[43] = molecular target: Fuc(a1-2)[GalNAc(a1-3)]Gal(b1-4)[Fuc(a1-3)]GlcNAc(b1-3)GalNAc
Procedure, shortened: as §1

[44] = molecular target: Fuc(a1-2)[GalNAc(a1-4)]Gal(b1-4)GlcNAc
Procedure, shortened: as §1

[45] = molecular target: Fuc(a1-2)[GalNAc(b1-3)]Gal
Procedure, shortened: as §1

B1: PX9961X-pdi-531-24-531 (Parabacteroides distasonis) (protein)
chain: DLTEEIHSSVIAENYYNNAGEVMAAMMRPWGHFCGTMQVAQSPWSCNELSSDCAAWPQKGRHGYDNGDWIRLHRHQWIPTDGQVVDAWKKLFEGIGYANNFLTDTENIDFEALQVPMSKAQAQAEMRVYRAYCYWYVMDMFGTAPICEKIGEINPSSKSRAELFAWIEKELNESIPSLSESKTETYGRVSKWGAYALLARLYLNAEIYTGQARWDDCIAACDELAKGGFALDKKWNDTFRADNDKRSTEIIWSIVYDEVYAKGMGWYQRWLHYAHQTGWDLQSGPWNGLVTQPTFYDSFADNDLRKIEGFLIGKQYPRKVDENGNYYYDTTAEPLKGSEEYNGQDLVFVNYIKSMTEGEENSGARSIKYEIQPGTTGDMNNDWVMFRYSEVIYNKAEALMRKNGGKATQEVVDMINSVRQRSFKAEDWEKAKYTTATLTMDEFLAEKGREFAFEGIRRTDLVRFNKFVTTSWWDKTASNEPKRNIFPIPQRQLDANANLSPNEANSLF
Q: Which “glycan array binding signal (z-score)” value [1] does the source give for B1 here?
A: The value was -0.069.

Q: What about the “glycan array binding signal (z-score)” value [2] of the same binder?
A: Its value is -0.727.

Q: What about the “glycan array binding signal (z-score)” value [3] of the same binder?
A: The value was -0.335.

Q: What about the “glycan array binding signal (z-score)” value [4] of the same binder?
A: Its value is -0.491.

Q: What about the “glycan array binding signal (z-score)” value [5] of the same binder?
A: Its value is -0.203.

Q: And the “glycan array binding signal (z-score)” value [6]?
A: Its value is -0.567.

Q: What about the “glycan array binding signal (z-score)” value [7] of the same binder?
A: Its value is -0.17.

Q: What about the “glycan array binding signal (z-score)” value [8] of the same binder?
A: The value was 1.15.

Q: And the “glycan array binding signal (z-score)” value [9]?
A: The value was 1.56.

Q: And the “glycan array binding signal (z-score)” value [10]?
A: Its value is 0.024.

Q: And the “glycan array binding signal (z-score)” value [11]?
A: Its value is 0.385.

Q: What about the “glycan array binding signal (z-score)” value [12] of the same binder?
A: Its value is 0.973.

Q: And the “glycan array binding signal (z-score)” value [13]?
A: The value was -0.931.

Q: And the “glycan array binding signal (z-score)” value [14]?
A: Its value is -0.156.

Q: What about the “glycan array binding signal (z-score)” value [15] of the same binder?
A: Its value is 0.429.

Q: And the “glycan array binding signal (z-score)” value [16]?
A: Its value is 0.103.

Q: And the “glycan array binding signal (z-score)” value [17]?
A: The value was -0.696.

Q: What about the “glycan array binding signal (z-score)” value [18] of the same binder?
A: Its value is -0.301.

Q: What about the “glycan array binding signal (z-score)” value [19] of the same binder?
A: The value was -0.139.

Q: And the “glycan array binding signal (z-score)” value [20]?
A: Its value is -0.222.

Q: And the “glycan array binding signal (z-score)” value [21]?
A: Its value is 0.052.

Q: And the “glycan array binding signal (z-score)” value [22]?
A: Its value is -0.149.

Q: And the “glycan array binding signal (z-score)” value [23]?
A: The value was -0.264.

Q: And the “glycan array binding signal (z-score)” value [24]?
A: Its value is -0.122.

Q: What about the “glycan array binding signal (z-score)” value [25] of the same binder?
A: Its value is -0.668.

Q: What about the “glycan array binding signal (z-score)” value [26] of the same binder?
A: The value was -0.13.

Q: And the “glycan array binding signal (z-score)” value [27]?
A: The value was -0.763.

Q: What about the “glycan array binding signal (z-score)” value [28] of the same binder?
A: The value was 0.821.

Q: And the “glycan array binding signal (z-score)” value [29]?
A: The value was -0.159.

Q: What about the “glycan array binding signal (z-score)” value [30] of the same binder?
A: Its value is 0.099.

Q: What about the “glycan array binding signal (z-score)” value [31] of the same binder?
A: Its value is 0.48.

Q: What about the “glycan array binding signal (z-score)” value [32] of the same binder?
A: Its value is -0.693.

Q: And the “glycan array binding signal (z-score)” value [33]?
A: Its value is -0.339.

Q: What about the “glycan array binding signal (z-score)” value [34] of the same binder?
A: The value was -0.718.

Q: What about the “glycan array binding signal (z-score)” value [35] of the same binder?
A: The value was 0.31.

Q: What about the “glycan array binding signal (z-score)” value [36] of the same binder?
A: Its value is -0.515.

Q: And the “glycan array binding signal (z-score)” value [37]?
A: The value was -0.746.

Q: And the “glycan array binding signal (z-score)” value [38]?
A: Its value is 0.379.

Q: What about the “glycan array binding signal (z-score)” value [39] of the same binder?
A: The value was -0.512.

Q: What about the “glycan array binding signal (z-score)” value [40] of the same binder?
A: Its value is -0.301.

Q: And the “glycan array binding signal (z-score)” value [41]?
A: Its value is -0.238.

Q: What about the “glycan array binding signal (z-score)” value [42] of the same binder?
A: Its value is -0.381.

Q: What about the “glycan array binding signal (z-score)” value [43] of the same binder?
A: The value was 0.235.

Q: And the “glycan array binding signal (z-score)” value [44]?
A: The value was -0.322.

Q: What about the “glycan array binding signal (z-score)” value [45] of the same binder?
A: The value was -0.449.
